# Article PMC4336329 (PLoS ONE, 2015)
# The whole screen tested about 310,000 compounds, of which about 2,200 (0.71%) showed an effect of 50% or more. Effects have a minus sign here. The list shows a part of the results.
# Biological target: human ether-à-go-go-related gene (hERG) potassium channel (human, UniProt Q12809)
# Assay: primary screen, population patch clamp on CHO cells stably expressing hERG
# Chain of human ether-à-go-go-related gene (hERG) potassium channel (Q12809 whole entry, looked up): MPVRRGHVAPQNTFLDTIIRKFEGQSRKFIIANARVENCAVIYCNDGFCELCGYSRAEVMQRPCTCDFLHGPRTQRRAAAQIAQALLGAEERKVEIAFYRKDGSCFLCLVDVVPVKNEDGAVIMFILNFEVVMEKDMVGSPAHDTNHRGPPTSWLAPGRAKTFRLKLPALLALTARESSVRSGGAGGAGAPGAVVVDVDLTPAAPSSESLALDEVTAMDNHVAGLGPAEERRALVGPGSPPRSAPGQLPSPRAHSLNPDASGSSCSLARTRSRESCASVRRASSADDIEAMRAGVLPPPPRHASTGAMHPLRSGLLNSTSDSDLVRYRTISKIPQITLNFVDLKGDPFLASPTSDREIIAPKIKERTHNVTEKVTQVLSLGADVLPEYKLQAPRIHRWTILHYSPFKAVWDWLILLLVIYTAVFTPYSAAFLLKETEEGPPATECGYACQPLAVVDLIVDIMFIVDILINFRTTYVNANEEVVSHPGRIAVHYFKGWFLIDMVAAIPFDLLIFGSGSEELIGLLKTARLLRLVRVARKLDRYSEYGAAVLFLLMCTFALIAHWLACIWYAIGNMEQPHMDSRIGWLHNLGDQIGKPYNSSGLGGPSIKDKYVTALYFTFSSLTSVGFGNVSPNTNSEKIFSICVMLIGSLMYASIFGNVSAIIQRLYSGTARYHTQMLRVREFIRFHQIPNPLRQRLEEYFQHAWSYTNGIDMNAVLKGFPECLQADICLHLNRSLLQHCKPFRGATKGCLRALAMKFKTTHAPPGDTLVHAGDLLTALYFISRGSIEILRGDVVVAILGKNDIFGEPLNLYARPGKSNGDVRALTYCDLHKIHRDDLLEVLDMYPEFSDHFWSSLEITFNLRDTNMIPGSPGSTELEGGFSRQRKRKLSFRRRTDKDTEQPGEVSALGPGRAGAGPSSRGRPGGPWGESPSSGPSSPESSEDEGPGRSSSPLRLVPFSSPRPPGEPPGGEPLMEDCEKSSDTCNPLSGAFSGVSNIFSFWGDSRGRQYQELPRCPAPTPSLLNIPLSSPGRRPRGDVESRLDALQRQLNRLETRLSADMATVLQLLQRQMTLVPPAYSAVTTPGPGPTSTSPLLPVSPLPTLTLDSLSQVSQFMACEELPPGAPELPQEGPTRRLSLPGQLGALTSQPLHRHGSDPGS
row,SMILES,"hERG current change (%, negative = inhibition) at 1uM [%]"
1,CCC(CC)C(=O)Nc1cccc(C(=O)NC(C)(C)C)c1,5.75
2,O=C(Cc1ccc(F)cc1)Nc1ccc(S(=O)(=O)N2CCCCC2)cc1,8.53
3,O=[N+]([O-])c1cc(-c2ccc(/C=N\n3cnnc3)o2)cc([N+](=O)[O-])c1,5.84
4,O=C(NC(=S)Nc1ccccc1N1CCCC1)c1ccccc1Br,16.8
5,CCOC(=O)c1cc2n(c1N)-c1ccccc1C2=O,-2.29
6,Cc1oc2ccc(OCc3c(F)cccc3Cl)cc2c1C(=O)O,12
7,CC1=C(c2ccc(F)cc2)[N+](=O)C(C)(C)N1[O-],13.5
8,CCOC(=O)NNc1ccc(C(F)(F)F)cn1,15.1
9,O=C1CC(c2ccc(S(=O)(=O)NCCOc3ccccc3)cc2)CN1 (stereo not shown),11.9
10,CCN(CC)S(=O)(=O)c1cccc(NC(=O)c2ccc(Br)cc2)c1,8.94
11,O=C(/C=C/c1cccc([N+](=O)[O-])c1)c1ccc2c(c1)OCCO2,4.79
12,COc1ccc(-c2csc3ncnc(N4CCN(S(=O)(=O)c5ccc(Cl)s5)CC4)c23)cc1,-1.02
13,COc1ccc(-n2ncc3c(=O)n(Cc4c(F)cccc4Cl)cnc32)cc1,11.3
14,CSc1cccc(CN2CCCC(CO)(Cc3cccc(Cl)c3)C2)c1 (stereo not shown),-0.44
15,COc1ccc(CCNC(=O)CS(=O)Cc2nc(-c3ccccc3Cl)oc2C)cc1OC (stereo not shown),9.09
16,COc1ccc(Cc2nnc(NCCO)[nH]c2=O)cc1,16.3
17,C#Cc1ccc(CN2CCN(CCc3ccccc3)C(CCO)C2)cc1 (stereo not shown),-15.3
18,CCCN(CC(=O)Nc1ccc(NC(C)=O)cc1)CC(=O)Nc1ccc(F)c(F)c1F,10.9
19,Cc1cc(SCC#N)n2nc(C)c(-c3ccc(Cl)cc3)c2n1,20.9
20,Cc1ccc(NC(=O)COC(=O)c2ccco2)cc1,10.6
21,Cc1cc(Br)cn2ccnc12,3.34
22,O=c1[nH]c(=S)[nH]c2c1C(c1ccc(Br)cc1)c1c([nH]c(=S)[nH]c1=O)O2,8.87
23,COc1cccc(C(=O)O/N=C(\N)CS(=O)(=O)c2ccccc2)c1,7.62

row,SMILES,"hERG current change (%, negative = inhibition) at 1uM [%]"
1,Cc1cccc(NC(=O)CCSc2nncn2C)c1,22.8
2,O=C(NNc1c2ccccc2nc2ccccc12)c1ccccc1Cl,10
3,Cc1ccsc1C1Nc2ccc3ncccc3c2C2=C1C(=O)CC(C)(C)C2 (stereo not shown),15
4,COc1cccc(COc2ccc(N(C)S(=O)(=O)c3ccccc3)cc2)c1,7.66
5,COc1ccc(S(=O)(=O)N(C)CC(=O)Nc2c(F)cccc2F)cc1,13.1
6,O=[N+]([O-])c1cc2c(cc1/C=N/n1c(-c3ccccc3)n[nH]c1=S)OCO2,7.43
7,CCOC(=O)C1=C(N)Oc2cc(C)oc(=O)c2C12C(=O)N1c3c(cccc32)C(C)CC1(C)C (stereo not shown),-1.59
8,COc1ccc(/C=C2/N=C(SC)NC2=O)cc1OC,6.89
9,Cc1ccccc1NC1=C(Cl)C(=O)OC1OC(C)C (stereo not shown),16.5
10,c1ccc(-c2nnc(SCCC3OCCCO3)o2)cc1,16.4
11,CC(Nc1nc(-c2ccccc2)nc2ccccc12)c1ccccc1 (stereo not shown),4.22
12,COc1ccc(CCNc2nc(-c3ccc(NC(C)=O)cc3)cs2)cc1OC,10.6
13,CN(C(=O)CSc1nnc(-c2cccs2)o1)C1CCS(=O)(=O)C1 (stereo not shown),10.3
14,O=C(NCCCC1CCCC1)C1CCC(=O)N(Cc2ccc(Cl)cc2)C1 (stereo not shown),-4.04
15,CCc1ccccc1NC(=O)Cn1nc(C)n2cccc2c1=O,10.4
16,COC(=O)c1c(C)[nH]c(C(=O)COC(=O)Cc2ccc3c(c2)OCCO3)c1C,-6.84
17,CC(C)(C)C1CCC(OC(=O)c2ccncc2)CC1 (stereo not shown),-7.2
18,Clc1ccc(OCc2nc3ccccc3[nH]2)cc1,14
19,COc1cccc(NC(=O)CN2C(=O)C3(OCCCO3)c3ccccc32)c1,4.62
20,Cc1ccc(NC(=O)C2CCCN(S(=O)(=O)c3cnc[nH]3)C2)cc1C (stereo not shown),4.39
21,CCn1c(O)c(N=NC(=O)CNC(=O)Cc2ccccc2)c2ccccc21,14.8
22,CC(C)(C)C(=O)NCCc1nc2ccccc2n1CC(=O)c1ccccc1,10.1
23,CC(=O)c1c(O)cc(C)n(-c2ccc(F)cc2)c1=O,5.99

row,SMILES,"hERG current change (%, negative = inhibition) at 1uM [%]"
1,COCCNC(=O)CSc1ccc(C)cc1,6.9
2,O=C(N/N=C/c1ccc(-c2cccc([N+](=O)[O-])c2)o1)c1cccs1,22.4
3,Fc1ccccc1CN1CCN(c2ccc(Cl)cc2)CC1,15.8
4,COc1ccc(COC(=O)c2nc3nc(C)cc(C)n3n2)cc1F,3.88
5,CCc1ccc(NC(=O)CSc2nc3ccsc3c(=O)n2CCCCCC(=O)O)cc1,10.1
6,O=C(O)c1ccc2c(=O)n3c(nc2c1)/C(=C/c1ccc(OC(F)F)cc1OC(F)F)CC3,17.9
7,Cc1cccc(C(=O)N[C@H](C(=O)Nc2nc3ccccc3[nH]2)C(C)C)c1,7.53
8,O=C(Cc1ccc(Cl)cc1Cl)OCC(=O)N1CCCCC1,12.3
9,CCC(Nc1nc(-c2ccccc2)nc2ccccc12)C(=O)O.Cl (stereo not shown),6.68
10,CCOC(=O)C(C)Oc1cccc2c(=O)n(CC(=O)NCc3ccco3)ccc12 (stereo not shown),6.61
11,CCCCC(=O)N/N=C/c1ccc(-c2ccc([N+](=O)[O-])cc2)o1,1.18
12,COc1cc(Cl)c(S(=O)(=O)NCc2cccnc2)cc1Cl,9.21
13,CCOC(=O)C1=C(C)NC(=S)N(C(C)=O)C1c1ccccc1 (stereo not shown),6.9
14,Cc1ccc2c(c1C)OC(=O)CC2c1ccccc1 (stereo not shown),7.89
15,CCc1cc(-c2n[nH]c(=S)n2N)n(C)n1,-6.77
16,CCN(CC)CCn1c(=S)[nH]c2cc(C(=O)NCc3ccccc3Cl)ccc2c1=O,-42.5
17,CC1=CN2C(=N)/C(=C/c3ccco3)C(=O)N=C2S1,15.8
18,Cc1cccc(N2CCN(c3nnc(C(F)(F)F)s3)CC2)c1,17.4
19,Nc1cnnc(N/N=C\c2ccccc2)c1Cl,11.6
20,CCOCCCNCC(=O)N1CCN(S(=O)(=O)c2ccc(C)cc2)CC1.O=C(O)C(=O)O,-0.248
21,O=C(c1ccc(COc2ccccc2Br)o1)N1CCCCCC1,-4.24
22,C/C(=N\NC(=O)c1nnn(-c2nonc2N)c1C)c1ccc(-c2ccccc2)cc1,14.5
23,O=C(Nc1ccccc1Cl)c1cnccn1,7.92

row,SMILES,"hERG current change (%, negative = inhibition) at 1uM [%]"
1,O=C(Cc1ccc([N+](=O)[O-])cc1)Nc1nccs1,9.57
2,Cc1c(CCC(=O)N2CCC(C(=O)O)(c3ccccc3)CC2)c(=O)oc2cc3oc4c(c3cc12)CCCC4,11.3
3,O=C(O)CC1S/C(=N/N=C/C=C/c2ccccc2)NC1=O (stereo not shown),5.99
4,Cc1cc(C(=O)c2ccc(Cl)cc2)c(NC(=O)CCl)s1,-0.352
5,CCN(CCO)C(=O)CC1C(=O)NCCN1Cc1c(F)cccc1Cl (stereo not shown),20.9
6,CC(C)(C)c1ccc(-n2ncc3c2CCCC3NC(=O)CN2CCOC2=O)cc1 (stereo not shown),8.05
7,CCCn1nnnc1NCc1ccccc1OCc1ccc(F)cc1,3.81
8,O=C([O-])c1cc(=O)[nH]c2ccc(S(=O)(=O)Nc3ccc(F)cc3)cc12.[K+],17
9,CC(=O)Nc1ccc(N/C=C(\C=O)c2nc3ccccc3o2)cc1,17.8
10,CSCc1cc(N2CCOCC2)nc(SCc2ccc(Cl)cc2Cl)n1,4.35
11,COC(=O)c1ccccc1OCCCCN1CC(C)OC(C)C1.O=C(O)C(=O)O (stereo not shown),5.46
12,CC(C)Cc1nn2c(N)c(/C=C3\C=Nc4ccccc43)c(=O)nc2s1,12.7
13,CCCCNC(=O)c1cccc2c(=O)c(C)c(-c3ccccc3)oc12,-1.37
14,CC(C(=O)Nc1cccc([N+](=O)[O-])c1)N1CCN(C/C=C/c2ccccc2)CC1 (stereo not shown),-74.2
15,COc1ccccc1-c1oc2ccccc2c1-c1ccc2c(c1)OCO2,14.2
16,Cc1ccc(NC(=O)Nc2cc(S(=O)(=O)N(C)C)ccc2C)cc1,8.45
17,COc1ccc2c(COC(=O)CCS(=O)(=O)c3ccc(C)cc3)cc(=O)oc2c1,2.59
18,O=C(/C=C/c1cccc(Br)c1)N1CCN(c2ccccn2)CC1,8.4
19,Cc1nc(C)c(-c2csc(N)n2)s1,4.33
20,O=C(CN1CCN(C(=O)CNC(=O)c2ccc(N3CCCC3=O)cc2)CC1)Nc1ccccc1Cl,12.4
21,COc1ccc(-c2nc3c(-c4ccc(F)cc4)cnn3cc2C)cc1F,6.61
22,O=C(O)CSc1nccn1-c1cccc(Cl)c1,7.78
